Experimental data from PubChem BioAssay AID720709 (National Center for Advancing Translational Sciences (NCATS), 2013).
Hit rate of the full screen: of about 360,000 compounds, about 520 (0.14%) were called active. The shares of active, inactive and inconclusive entries below differ from those in the screen. The call rests on the fitted dose curve; in most records, active means well fitted inhibition curve with a large enough effect; inconclusive means small, poorly fitted or top-dose-only effect; inactive means no such curve, though single readings can be large or run the other way. Potencies of inconclusive entries are left out as doubtful fits.

target: Rap guanine nucleotide exchange factor 3 (Homo sapiens) (UniProt O95398); experiment: qHTS for Antagonist of cAMP-regulated guanine nucleotide exchange factor 3 (EPAC1): primary screen; settings: EPAC1 GEF assay, Rap1b-BODIPY-GDP exchange fluorescence; activity change, negative = inhibition: at 115 µM (top of the series); further: nearly all actives have a fitted effect of over 50% in size;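 on activity change, negative = inhibition: plate controls were vehicle for no effect and positive control for full effect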
UniProt O95398, sequence (O95398 whole entry, looked up): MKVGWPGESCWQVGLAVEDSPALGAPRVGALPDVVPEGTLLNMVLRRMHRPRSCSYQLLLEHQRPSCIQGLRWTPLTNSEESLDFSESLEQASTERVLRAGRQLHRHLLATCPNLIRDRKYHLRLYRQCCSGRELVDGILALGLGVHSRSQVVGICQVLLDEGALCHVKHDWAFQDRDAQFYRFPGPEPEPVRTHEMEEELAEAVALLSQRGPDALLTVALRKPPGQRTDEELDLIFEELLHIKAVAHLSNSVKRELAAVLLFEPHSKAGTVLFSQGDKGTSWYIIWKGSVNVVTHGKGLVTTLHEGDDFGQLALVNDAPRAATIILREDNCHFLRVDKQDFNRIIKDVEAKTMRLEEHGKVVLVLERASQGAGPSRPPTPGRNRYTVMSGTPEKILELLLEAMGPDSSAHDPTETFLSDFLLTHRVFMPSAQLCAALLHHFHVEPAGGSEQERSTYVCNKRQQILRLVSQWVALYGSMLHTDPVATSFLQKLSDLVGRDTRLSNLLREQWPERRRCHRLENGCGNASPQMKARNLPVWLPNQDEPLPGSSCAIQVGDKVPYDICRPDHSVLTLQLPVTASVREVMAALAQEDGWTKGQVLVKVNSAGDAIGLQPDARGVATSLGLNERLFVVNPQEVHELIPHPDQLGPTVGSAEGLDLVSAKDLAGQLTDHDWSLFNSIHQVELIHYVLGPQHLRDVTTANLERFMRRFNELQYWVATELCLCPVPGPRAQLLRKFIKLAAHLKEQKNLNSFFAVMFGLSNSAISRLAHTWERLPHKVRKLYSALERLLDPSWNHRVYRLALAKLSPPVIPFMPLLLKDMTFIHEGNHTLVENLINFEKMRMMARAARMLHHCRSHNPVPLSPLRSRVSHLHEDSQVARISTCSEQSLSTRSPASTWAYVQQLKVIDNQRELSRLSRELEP
Potency means the concentration at half of the fitted maximal effect; tags describe the fitted curve by direction and shape.

Row | SMILES | Potency | activity change, negative = inhibition
1 | Cc1ccc(NCC(=O)Nc2cccc(F)c2)cc1S(=O)(=O)N1CCCCCC1 | inconclusive [inhibitor, partial curve, poor fit] | –
2 | Cc1ccc(NC(=O)c2cc(S(=O)(=O)Nc3ccc(C)cc3)cs2)cc1 | – | inconclusive: -21.5% [inhibitor]
3 | Clc1ccc(CSc2nnc(-c3ccccn3)n2Cc2ccco2)c(Cl)c1 | inconclusive [inhibitor, partial curve] | –
4 | C=C(C)CNC(=S)N/N=C/C1=CCC2CC1C2(C)C (configuration not stated) | inconclusive [inhibitor, single point] | –
5 | OC(c1ccccc1)c1nc(-c2cc3ccccc3o2)cs1 (configuration not stated) | inconclusive [inhibitor, full curve, poor fit] | –
6 | COc1cccc(NC(=O)c2cc3ccccc3oc2=O)c1 | inactive | –
7 | O=C(c1cc2cc([N+](=O)[O-])ccc2oc1=O)n1cccn1 | inconclusive [inhibitor, full curve, poor fit] | –
8 | CNc1nc(NCc2ccc(C)cc2C)c2sccc2n1 | inconclusive [inhibitor, partial curve] | –
9 | Cc1cccc2nc(CSc3nnc(N)s3)cn12 | inconclusive [inhibitor, single point] | –
10 | O=C1C2Sc3[nH]c(=O)sc3C(c3cc([N+](=O)[O-])ccc3O)C2C(=O)N1c1ccccc1 (configuration not stated) | inconclusive [inhibitor, partial curve, poor fit] | –
11 | CC[N+]1(C)CCC(O)(/C=C/c2ccccc2)C(C(=O)/C=C/c2ccccc2)C1 (configuration not stated) | inactive | –
12 | CC1(C)Cc2c(ccc3ccccc23)C2=C(C(=O)N3CCCC3)C(=O)C(=O)N21 | inconclusive [inhibitor, single point] | –
13 | Oc1ccc(N=Cc2ccc(OCc3ccccc3)cc2)cc1 | active: 25.1 µM | –
14 | O=C(CN1CCC(O)CC1)N1c2ccccc2C=Cc2ccccc21 | inactive | –
15 | NS(=O)(=O)c1ccc(NC(=O)COC(=O)COc2ccc3ccccc3c2)cc1 | inconclusive [inhibitor, partial curve, poor fit] | –
16 | O=C(c1cc(-c2ccc(O)cc2)on1)N1CCN(c2ccccc2)CC1 | inconclusive [inhibitor, partial curve, poor fit] | –
17 | CCOC(=O)C1CCCN(c2cc(=O)n(C3CCCCC3)c(=O)[nH]2)C1 (configuration not stated) | inconclusive [inhibitor, partial curve] | –
18 | CCN1/C(=C/C=C/c2sc3ccccc3[n+]2CC)Sc2ccccc21 | inactive | –
19 | COc1ccc(C(=O)O/N=C(\N)Cc2ccc(Cl)c(Cl)c2)cc1OC | inactive | –
20 | COc1cccc(Cn2nnc(C(=O)Nc3cc(C)ccc3OC)c2N)c1 | inconclusive [inhibitor, partial curve] | –
21 | CC(NS(=O)(=O)c1ccc(Br)cc1)C(c1cccs1)N1CCN(C)CC1 (configuration not stated) | inconclusive [inhibitor, single point] | –

Row | SMILES | Potency | activity change, negative = inhibition
22 | COc1ccc(-n2cccc2/C=C2\C(=N)N3N=C(c4ccco4)SC3=NC2=O)cc1 | inconclusive [inhibitor, partial curve] | –
23 | COc1ccc(/C=C/C(=O)NC(=S)NNC(=O)c2cnccn2)cc1 | inconclusive [inhibitor, single point] | –
24 | CCO[C@H]1OC(C(=O)N2CCOCC2)=C[C@@H](C)[C@@H]1CCCO | inconclusive [inhibitor, single point] | –
25 | COc1cc(Cl)cc2c1Sc1ccccc1/C2=C/CCN(C)C | inactive | –
26 | CCOc1ccc(-n2c(=S)sc3c(=O)[nH]c(SCC(=O)C(C)(C)C)nc32)cc1 | inconclusive [inhibitor, partial curve] | –
27 | O=C(C1CCCN(c2ncnc3c2nc2n3CCCCC2)C1)N1CCN(c2ccc(Cl)cc2)CC1 (configuration not stated) | inconclusive [inhibitor, single point] | –
28 | Cc1ccc(/C=N/n2cnc3sc4c(c3c2=O)CCCC4)o1 | inactive | –
29 | CCOc1cc(/C=N/Nc2nc(-c3cccs3)c(NC(C)=O)s2)ccc1O | inconclusive [inhibitor, single point] | –
30 | O=C(Nc1nc(-c2cccc([N+](=O)[O-])c2)cs1)c1cccc([N+](=O)[O-])c1C(=O)O | inconclusive [inhibitor, full curve, poor fit] | –
31 | O=C(COc1ccccc1F)Nc1cc(S(=O)(=O)N2CCOCC2)ccc1N1CCOCC1 | inconclusive [inhibitor, single point] | –
32 | Cc1ccc(SC[C@H](Cc2ccccc2)N2CC[C@@H](C)CCC2=O)cc1 | inactive | –
33 | COc1cccc(-c2c(-c3cc(OC)cc(OC)c3)n(C)c3ccc(-c4ccc5[nH]ccc5c4)cc23)c1 | inconclusive [inhibitor, single point] | –
34 | O=C(NC1CCCCC1)N1CCc2ccccc21 | inactive | –
35 | Cc1c(C(=O)N2CCCCCC2)c(S(=O)(=O)NCc2ccccc2Cl)c(C)n1C | inconclusive [inhibitor, single point] | –
36 | CC(=O)NC1C(=O)N(CCN2CCOCC2)c2ccc(Cl)cc21 (configuration not stated) | inconclusive [inhibitor, full curve] | –
37 | O=C(N/N=C/c1c(O)ccc2ccccc12)c1ccc(Br)o1 | inconclusive [inhibitor, partial curve] | –
38 | Cc1cc(C)c(S(=O)(=O)/N=C2\C=CC(=O)C(Cl)=C2)c(C)c1 | inconclusive [inhibitor, single point] | –
39 | CCCCn1c(-c2ccco2)n[nH]c1=S | inconclusive [inhibitor, partial curve, poor fit] | –
40 | CCc1cccc(C)c1NC(=S)NCc1ccc2[nH]c(C)cc2c1 | inconclusive [inhibitor, single point] | –
41 | O=C(NC1CC1)C1CCN(S(=O)(=O)c2cc([N+](=O)[O-])ccc2Cl)CC1 | inconclusive [inhibitor, single point] | –
42 | COc1ccccc1NC(=O)C1=C(C)NC(=O)NC1c1ccccc1[N+](=O)[O-] (configuration not stated) | inactive | –
